The results in this text go back to PubChem BioAssay AID1963576 (National Center for Advancing Translational Sciences (NCATS), 2024).

Each structure is given as a SMILES string. The whole screen tested about 46,000 compounds, of which about 60 (0.1%) were called active. Inconclusive results (about 3%) are left out. Calls follow the shape of the dose curve; as a rule, active = well fitted inhibition curve with a large enough effect; inconclusive = small, poorly fitted or top-dose-only effect; inactive = no such curve, though single readings can be large or run the other way. Some of the results follow.

The assay is described as follows: Primary qHTS assay for Inhibitors of ovarian cancer metastasis using an organotypic tumor microenvironment (TME) model. Also: nearly all actives have a fitted effect of over 65% in size.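 As to activity change, negative = inhibition: plate controls were DMSO wells for no effect and tomatine positive control wells for full effect.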 To be noted: SKOV3ip1-GFP adhesion/invasion on 3D omental model, fluorescence; series mostly up to 45.8 µM; activity change, negative = inhibition: at the top concentration. The procedure, abridged: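 Adhesion/invasion was scored as fixed GFP-labeled SKOV3ip1 cell counts (488/509 nm), normalized to DMSO and tomatine controls. Cancer cells in serum-free medium, with four compound doses (0.36-46 umol/L), sat 2 hr at RT then 16 hr at 37 C on a 48 hr fibroblast/mesothelial/ECM culture.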
With `COCCNc1ncnc2onc(-c3ccc(F)cc3)c12`, the “activity change, negative = inhibition” value is inactive: -11.5%. For the molecule `COc1ccccc1CNC(=O)c1cc2cc(C)ccc2n1C`, the “activity change, negative = inhibition” value was inactive: 6.35%. Take `COc1cc(CNc2ccc3[nH]c(=O)[nH]c3c2)cc(Br)c1OCc1ccc(F)cc1`: the “activity change, negative = inhibition” value was inactive: -7.3%. With `CN(C)c1cccc(C(=O)N2CCC(c3ccncc3)CC2)c1`, the “activity change, negative = inhibition” value was inactive: 11.9%. Regarding `CCOc1ccc(CNC(=O)CN2C(=O)C3CCCCN3c3ccc(C(=O)N4CCCC4)cc32)cc1` (configuration not stated), the “activity change, negative = inhibition” value was inactive: -22.2%.

Take `Cc1ccc(S(=O)(=O)c2nc(S(=O)(=O)c3ccc(C)cc3)c(NC(C)C)s2)cc1`: the “activity change, negative = inhibition” value is inactive: 0.243%.

On to `CCOc1ccc(CNC(=O)c2cnc3sc(N4CCCCCC4)nn3c2=O)cc1OC`, for which the “activity change, negative = inhibition” value is inactive: -1.64%.

`Cc1ccc(C)c(NC(=O)Cn2c(=O)n(Cc3ccc4c(c3)OCO4)c(=O)c3ccc(C(=O)NC4CCCCC4)cc32)c1`: the molecule was classed as inactive. `CCc1cccc(C)c1NC(=O)C(CC)n1ncn2c(cc3cc(C)ccc32)c1=O` (configuration not stated): the outcome was inactive.

For `CN1CCN2c3ncccc3Cc3ccccc3C2C1` (configuration not stated), the “activity change, negative = inhibition” value is inactive: 19.4%. Consider `COc1ccc(Cn2ccc3nc(C)c(C(=O)N4CCN(c5cc(C)ccc5C)CC4)cc3c2=O)cc1`, for which the “activity change, negative = inhibition” value was inactive: -23.8%. Still for that read-out and setting: then `O=C(O)CCc1ccc(-c2cccs2)n1CC(=O)Nc1ccccc1C(F)(F)F`, with inactive: 2.75%; and `O=C(CSc1nc(-c2ccccc2)nc2c1CCCC2)c1ccc(Cl)cc1`, with inactive: 28.6%.

With `Cc1cccc(NC(=O)C2CCN(S(=O)(=O)c3ccc4c(c3)CCCC(=O)N4)CC2)c1`, the result was inactive. Take `CCCNC(=O)C1CCC(Cn2c(=O)c3sccc3n(CC(=O)Nc3ccccc3C)c2=O)CC1` (configuration not stated): the “activity change, negative = inhibition” value was inactive: -2.11%. Turning to `CCCN(C(=O)c1sc2nc3n(c(=O)c2c1C)CCCC3)c1ccccc1C`, the “activity change, negative = inhibition” value was inactive: 13.6%. The same measure, in the same setting: then `CC(C)N(CC[C@H](c1ccccc1)c1cc(CO)ccc1O)C(C)C`, with inactive: 17.2%; and `Cc1ccc2c(c1)CC(C)N2S(=O)(=O)c1nnc(NC(=O)C(C)C)s1` (configuration not stated), with inactive: 1.03%; and `COc1ccc(NC(=O)Cn2cc(C(=O)C3CCCCC3)c3ccccc32)cc1`, with inactive: -11.8%. Consider `Cc1c(Cl)cccc1NC(=O)C(=O)NCC(c1cccnc1)N1CCN(c2ccccc2)CC1` (configuration not stated), for which the “activity change, negative = inhibition” value is inactive: 30.1%. As to `CCc1noc(-c2ccc(N(C)Cc3ccc(OC)cc3)c([N+](=O)[O-])c2)n1`, the outcome was inactive. Consider `CCOc1ccc(CCNC(=O)c2sc3ncccc3c2-n2c(C)ccc2C)cc1`, for which the “activity change, negative = inhibition” value is inactive: 2.17%. In the case of `CCc1ccc(Nc2cc(C(=O)NCCCN(C)c3ccccc3)c3ccccc3n2)cc1`, the molecule was classed as inactive. Take `COc1ccc(OC)c(NC(=O)N2CCC(N3CCN(Cc4ccc(F)cc4)C(=O)C3=O)CC2)c1`: the “activity change, negative = inhibition” value was inactive: 0.987%.

`COC(=O)c1c(NC(=O)c2cc3nc(-c4ccc(Br)cc4)cc(C(F)(F)F)n3n2)sc2c1CCCC2`: the “activity change, negative = inhibition” value was inactive: -6.87%.

Take `CC(NC(=O)c1ccc2nc(Cc3ccccc3)oc2c1)c1ccccc1` (configuration not stated): the “activity change, negative = inhibition” value is inactive: -0.919%. As to `Cc1cc(=O)n(CC(=O)Nc2cccc([N+](=O)[O-])c2)c(-n2nc(C)cc2C)n1`, the “activity change, negative = inhibition” value was inactive: 3.85%.

Consider `COc1ccc(-c2cc(C(F)(F)F)nc(SCCC(=O)Nc3cccc(O)c3)n2)cc1`, for which the outcome was inactive.

As for `O=C(Nc1ccccc1OCc1cc(=O)n2ccccc2n1)c1ccccc1F`, the “activity change, negative = inhibition” value is inactive: 29.7%. With `CSc1cccc(NC(=O)Cn2cnc(S(=O)(=O)N3CCCC3)c2)c1`, the call was inactive. Consider `CC1=C(C(=O)OCC2CCCCC2)C(c2ccc(Cl)cc2Cl)CC(=O)N1` (configuration not stated), for which the outcome was inactive. In the case of `CCCn1c2ccccc2c2cnn(CC(=O)NCc3cc(OC)ccc3OC)c(=O)c21`, the “activity change, negative = inhibition” value is inactive: 0.392%. Same read-out and setting: the result for `COc1ccc(CNC(=O)CN2C(=O)CSc3ccc(S(=O)(=O)N4CCCC4)cc32)cc1` reads inactive: 12.5%; that for `CCCCNC(=O)CN1C(=O)COc2ccc(S(=O)(=O)N3CCCC3)cc21`, inactive: -1.23%; that for `CCc1ccccc1NC(=O)C(C)n1nc(-c2ccc(C)c(C)c2)ccc1=O` (configuration not stated), inactive: -0.0065%. As to `O=C(C1CCN(S(=O)(=O)Cc2ccccc2)CC1)N1CCN(c2ccccc2F)CC1`, the “activity change, negative = inhibition” value is inactive: 4.1%.

With `Cc1cccc(Cn2cc(C(=O)Nc3ccc(S(N)(=O)=O)cc3)ccc2=O)c1`, the “activity change, negative = inhibition” value is inactive: -15.7%.

Regarding `COc1ccc(Cl)cc1NC(=O)N1CCC(CN2CCCCCC2)CC1`, the “activity change, negative = inhibition” value is inactive: -7.93%. On to `Cc1ccc(C)c(Nc2nc3nonc3nc2Nc2cccc(C)c2C)c1`, for which the “activity change, negative = inhibition” value is inactive: -32.6%.

For the molecule `CCOC(=O)c1cccc(NC(=O)C(Cc2ccccc2)NS(=O)(=O)c2cccc3nsnc23)c1` (configuration not stated), the “activity change, negative = inhibition” value is inactive: 0.325%. Same read-out and setting: the result for `COc1ccc(CNC(=O)C(=O)NCC(c2ccco2)S(=O)(=O)c2ccc(C)cc2)cc1` (configuration not stated) reads inactive: -0.582%. `CCc1ccccc1OCCSc1nnc(-c2cc(OC)c(OC)c(OC)c2)o1`: the molecule was classed as inactive.

`COc1cc2nc(Nc3ccc(F)cc3)nc(N)c2cc1OC`: the “activity change, negative = inhibition” value was inactive: -35.5%. In the case of `COC(=O)c1ccc(Cn2nnc3sc4c(c3c2=O)CCCC4)cc1`, the “activity change, negative = inhibition” value is inactive: 4.05%. For the molecule `CCn1nc(C)c2c(-c3ccccc3)cc(=O)n(C(C)C(=O)NCc3ccc(C)cc3)c21` (configuration not stated), the “activity change, negative = inhibition” value was inactive: -6.12%.

As to `CC(=O)c1ccc(NC(=O)c2nc3ccccc3n(C)c2=O)cc1`, the “activity change, negative = inhibition” value is inactive: -25.5%. Consider `O=C(CSC1=Nc2ccccc2N=C(c2ccc(F)cc2)C1)NCc1ccc(Cl)cc1`, for which the “activity change, negative = inhibition” value is inactive: -5.51%.
